About 230 (0.21%) of roughly 110,000 compounds showed an effect of 50% or more. This is one part of the list.
Target: DPAP1 (Plasmodium falciparum, UniProt Q8IIJ9)
Assay: primary screen, percent inhibition; read by cleavage of a fluorogenic dipeptide substrate; higher = more effect of the substance
Parameters: species or system P. falciparum D10 trophozoite lysates; single well
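Note: 30 min substrate incubation versus DMSO and 10 µM JCP410 controls.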

DPAP1, sequence (Q8IIJ9 whole entry, looked up): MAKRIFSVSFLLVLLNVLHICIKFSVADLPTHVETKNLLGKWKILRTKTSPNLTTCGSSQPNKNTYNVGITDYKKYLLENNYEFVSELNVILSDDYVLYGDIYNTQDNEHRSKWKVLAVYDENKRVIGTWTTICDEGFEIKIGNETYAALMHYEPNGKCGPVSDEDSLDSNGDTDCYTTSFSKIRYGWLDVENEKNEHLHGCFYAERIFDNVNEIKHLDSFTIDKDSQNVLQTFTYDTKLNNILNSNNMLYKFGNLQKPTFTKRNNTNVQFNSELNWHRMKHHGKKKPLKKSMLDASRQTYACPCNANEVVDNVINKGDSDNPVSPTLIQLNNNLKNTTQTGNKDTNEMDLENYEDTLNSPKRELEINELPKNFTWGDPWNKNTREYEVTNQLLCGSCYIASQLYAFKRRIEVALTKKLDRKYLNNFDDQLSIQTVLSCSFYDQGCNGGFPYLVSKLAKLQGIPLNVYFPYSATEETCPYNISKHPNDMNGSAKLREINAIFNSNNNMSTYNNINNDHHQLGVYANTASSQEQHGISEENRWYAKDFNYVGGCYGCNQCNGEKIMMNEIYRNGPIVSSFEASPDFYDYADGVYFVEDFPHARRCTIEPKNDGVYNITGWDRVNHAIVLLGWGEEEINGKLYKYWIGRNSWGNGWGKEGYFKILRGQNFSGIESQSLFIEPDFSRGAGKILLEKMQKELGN

Point of comparison: `C=CCNC(=O)/C(C#N)=C/c1c(Oc2ccc(Cl)c(C)c2)nc2ccccn2c1=O`, “% Inhibition @ 10 uM” value -2.92%. Against it:
- Cc1ccc2nc(-c3ccc(NC(=O)C4CC4)cc3)sc2c1 — lower, -4.14%
- Cc1cc(C(=O)N2CCN(C(c3ccccc3)c3ccccc3)CC2)no1 — lower, -5.09%
- Cc1c(C(=O)O)cccc1-c1ccc(/C=C2\SC(=O)N(CC(=O)N3CCOCC3)C2=O)o1 — lower, -9.68%
- O=C(O)CCCC(=O)NCCCc1ccccc1 — lower, -8.48%
- O=Cc1ccc(-c2ccc(Cl)cc2)o1 — higher, 8.97%
- Cc1oc(C(C)(C)C)cc1C(=O)NCCNC(=O)c1cc(C(C)(C)C)oc1C — lower, -3.19%
- Cc1ccc(C[n+]2c3n(c4ccccc42)CC(O)CS3)cc1 (stereo not drawn) — higher, 3.66%
- Cc1noc(NS(=O)(=O)c2ccc(NC(=O)NC3CCCCC3)cc2)c1C — higher, -0.511%
- O=C(C1CC1c1ccccc1)N1CCN(c2ccccc2)CC1 (stereo not drawn) — lower, -7.46%
- Cc1ccc(NC(=O)Cn2c(Br)nc3c2c(=O)n(C)c(=O)n3C)cc1 — higher, 2.95%
- COC(=O)C1=CN(C(C)C)C=C(C(=O)OC)C1c1cccc(OC)c1OC — higher, 0.219%
- CCn1ncc(Br)c1C(=O)NCc1ccc(OC)c(OC)c1 — higher, 1.76%
- CC1CCc2[nH]c3ccc(C(=O)O)cc3c2C1 (stereo not drawn) — higher, 0.193%
- CCOC(=O)CC(=O)c1c[nH]c2ccccc12 — higher, 4.73%
- CCOC(=O)N1CCN(C(=O)Cn2nc(-c3ccc(C)cc3)ccc2=O)CC1 — higher, 3.79%
- O=C1/C(=C\c2ccc(OCC(=O)N3CCOCC3)cc2)Sc2ccccc21 — higher, 2.08%
- COc1ccc(Nc2cc(C)nc3c(C)c(C)cc(N)c23)cc1 — higher, -0.312%
- CCOc1cc(CNC2CC(C)(C)NC(C)(C)C2)ccc1OC — higher, 0.9%
- COC(=O)C1=C(C)OC(N)=C(C#N)C1c1ccc(F)cc1 (stereo not drawn) — higher, 0.912%
- Cc1nc2c3cccnc3nn2c(C)c1CCC(=O)N1CCCCCC1 — higher, -1.7%
- O=C(c1oc(=O)c2ccccc2c1-c1ccccc1)N1CCC(O)CC1 — higher, -2.88%
- Cc1ccn(-c2cccc(-n3ccc(C)n3)n2)n1 — lower, -3.25%
- O=C(O)c1ccccc1NC(=O)C1C2CCC(O2)C1C(=O)O (stereo not drawn) — lower, -5.47%
- O=C(CSc1nnc2c(n1)[nH]c1ccccc12)Nc1nnc(-c2ccccc2)s1 — higher, 5.05%
- Cc1ccc(-c2cc(C(F)(F)F)n3nc(C(=O)Nc4cccnc4Cl)cc3n2)cc1 — higher, -2.62%
- COc1cccc(C2CC(O)=C/C(=N/CCc3ccc(OC)c(OC)c3)C2)c1 (stereo not drawn) — higher, -2.63%
- O=C(O)c1cc(-c2ccc(F)cc2)nc2ccccc12 — higher, 5.03%
- O=C1NN=C(c2ccccc2O)C1[N+](=O)[O-] (stereo not drawn) — higher, -0.856%
- C=CCNC(=O)CCCc1nc(-c2ccccc2OC)no1 — higher, 0.347%
- CC1=NC(C(F)(F)F)(C(F)(F)F)C2=C(CC(C)(C)CC2=O)N1CC1CCCO1 (stereo not drawn) — lower, -9.16%
- Cc1onc(-c2ccccc2Cl)c1C(=O)NC(C)(C)C — lower, -3.87%
- COc1cc(C2CC(=O)N3CN(C)CSC3=C2C#N)cc(OC)c1OC (stereo not drawn) — higher, 3.77%
- CC(=O)N/C(=C\c1ccccc1)C(=O)Nc1cc(Cl)cc(Cl)c1 — lower, -3.26%
- CCN1CCN(C(=O)c2ccc3c(c2)c(C)c(C)n3Cc2ccccc2)CC1 — lower, -7.04%
- CCOC(=O)Nc1cc(NC(=O)OCC)c(C)nc1C — lower, -10.4%
- N#C/C(=C\c1ccc(-c2cccc(Cl)c2)o1)C(=O)NCc1ccccc1 — higher, 5.98%
- CCN1CCCC1CNC(=O)c1ccc(CS(=O)(=O)c2c(Cl)cccc2Cl)o1 (stereo not drawn) — higher, -0.971%
- O=C1CC(c2ccccc2)CC(=O)C1=CNc1ccccc1Cl (stereo not drawn) — lower, -4.75%
- O=C(NCC1COc2ccccc2O1)c1cc2c(s1)-c1ccccc1OC2 (stereo not drawn) — higher, 1.89%
- Brc1ccc(OCCCCN2CCOCC2)cc1 — higher, 0.392%
- COc1ccc(CN2CCc3c([nH]c4ccccc34)C2)cc1OC — higher, 3.03%
- O=C(c1cc(-c2ccc(Cl)cc2Cl)nc2ccccc12)N1CCOCC1 — higher, 2.65%
- CCc1ccc(C(=O)COC(=O)c2cnccn2)cc1 — lower, -10.8%
- Cc1ccc(-c2cc(C(=O)N3CCOCC3)c3cccc(C)c3n2)cc1 — lower, -3.33%
- COCCn1c(SCc2ccc(Cl)cc2)nc2c1c(=O)[nH]c(=O)n2C — higher, -1.37%
- Cc1cc(N2CCN(C)CC2)nc2ccccc12 — lower, -7.02%
- CCCCSC1=C(C#N)C(=O)NC(c2ccc(OC)cc2)S1 (stereo not drawn) — higher, 8.15%
- COc1cc(-c2nnc3sc(-c4cc5ccccc5o4)nn23)cc(OC)c1OC — higher, 4.47%
- O=C(O)CCCC(=O)Nc1cccc(Cl)c1 — higher, -0.807%
- O=C1CCSc2c1cccc2C(=O)NCCc1ccc(Cl)cc1 — lower, -9.67%
- O=C(Nc1ccc(S(=O)(=O)N2CCCCC2)cc1)c1sc2ccccc2c1Cl — lower, -8.38%
- C=C(Br)C[C@H](NC(=O)OCc1ccccc1)C(=O)NCC#N — lower, -6.46%
- O=C(CN(c1ccccc1)S(=O)(=O)c1ccccc1)NC1CC2CCC1C2 (stereo not drawn) — higher, -2.03%
- Cc1ccc2c(c1)cc1c(=O)n(CC(=O)NCCC3=CCCCC3)nc(C)n12 — higher, 4.84%
- CCOC(=O)/C(=N\OC)c1cn2cc(Br)ccc2n1 — higher, 2.09%
- Cc1cc(NC(=O)CN2CCN(c3ccccc3C)CC2)no1 — lower, -3.37%
- CC(C)(C)C1CCC(N2CCN(CCOCCO)CC2)CC1 (stereo not drawn) — higher, -0.0908%
- O=C(COc1ccc(S(=O)(=O)N2CCCC2)cc1)Nc1ccc(Cl)c(C(F)(F)F)c1 — higher, -0.795%
- O=C(O)COc1ccc(/C=C2/NC(=O)N(Cc3ccc(F)cc3)C2=O)cc1Br — higher, -1.38%
- Cc1ccnc(NC(=O)c2nn(C)c3c2CSc2ccccc2-3)c1 — higher, 0.00665%
- CCc1nc2ccccc2c(NC(=O)CN2CCOCC2)c1C — lower, -6.6%
- Cc1ccccc1OCC(O)Cn1c(SCCO)nc2c1c(=O)[nH]c(=O)n2C (stereo not drawn) — higher, 1.8%
- Cc1nc2c(c(C)nn2C(C)(C)C)c(C)c1CCC(=O)N1CCN(Cc2ccccc2)CC1 — lower, -6.09%
- Cc1cc(NC(=O)c2cc3ccccc3c(=O)o2)no1 — higher, -1.52%
- O=C(NCc1ccc(F)cc1)c1cc2n(n1)C(C(F)(F)F)CC(C1CC1)N2 (stereo not drawn) — higher, -1.1%
- O=C(CCNS(=O)(=O)c1ccc2nc(O)ccc2c1)NCc1ccco1 — higher, -2.84%
- O=C1C(=O)N(CN2CCOCC2)c2ccccc21 — higher, 1.29%
- CCOC(=O)Nc1ccc2c(c1)N(C(=O)C(C)N1CCCCC1)c1ccccc1CC2 (stereo not drawn) — lower, -4.26%
- CCCCN1COc2ccc3c4c(c(=O)oc3c2C1)CCCC4 — higher, 0.0654%
- NC(=O)C1(N2CCCCC2)CCN(c2c(-c3ccccc3)c(=O)c2=O)CC1 — higher, 2.47%
- CCOc1ccc(C(=O)NCc2ccc(Cl)cc2)cc1 — higher, -2.17%
- CCOC(=O)C1=CN(C)C=C(C(=O)OCC)C1c1ccc(OC)cc1 — higher, -1.48%
- CCN(CC)S(=O)(=O)c1ccc(Sc2ccc(Br)cc2)c(C(=O)O)c1 — higher, -1.69%
- CC1=NN2C(=N)/C(=C/c3ccc(OCCOc4ccccc4Cl)cc3)C(=O)N=C2S1 — higher, 0.484%
- Sc1nnc(-c2ccccc2)n1C1CCCCC1 — higher, 13.2%
- Cc1ccc2occ(CN3CCC(N4CCCCC4)CC3)c(=O)c2c1 — higher, -0.0648%
- CCN(CC)CCCNC(=O)c1ccccc1C — higher, 2.46%
- N#Cc1cn(CC(=O)NCc2ccc3c(c2)OCO3)c2ccccc12 — lower, -8.3%
- CC(C)C(=O)Nc1ccc(NC(=O)c2cc3ccccc3o2)cc1 — lower, -4.12%
- Cc1ccccc1Cn1cc(SCC(=O)NCc2ccco2)c2ccccc21 — higher, 1.17%
- CCOc1ccc(NC(=O)C2CC(=O)N(c3ccc(C)cc3)C2)cc1 (stereo not drawn) — higher, -0.28%
- CCN(CC)CCCNC(=O)c1cc(-c2ccc(Cl)cc2)on1 — higher, -2.65%
- Cc1ccc(Cn2c(C)c(CNC(C)CCc3ccccc3)c(C(=O)O)c2C)cc1 (stereo not drawn) — higher, -0.23%
- Cc1cc(-c2ccc(Br)cc2)c(C#N)c(N)n1 — higher, 2.05%
- CCc1c(C)sc(NC(=O)C2c3ccccc3Oc3ccccc32)c1C(N)=O — lower, -4.41%
- CN(C)c1ccc(CN2CCCCCCC2)cc1 — higher, 2.47%
- CCCCNC(=O)Cn1ccc2ccccc2c1=O — higher, -2.4%
- COc1ccc(C2C=C(C)Nc3nc(SC)nn32)cc1 (stereo not drawn) — higher, -1.62%
- Cn1c2ccccc2n2nc3ncnc(O)c3c12 — higher, -0.597%
- COc1cc(/C=C2/SC(Nc3ccccc3F)=NC2=O)ccc1OCC(=O)O — higher, 1.8%
- CC(=O)N[C@@H](Cc1cc(I)c(O)c(I)c1)C(=O)NCC#N — higher, 3.19%
- CCCNC(=O)N(Cc1nc(-c2ccc(OC)cc2)no1)C1CCCCC1 — higher, 0.00706%
- CC1=CC(=C2C(=O)c3ccccc3C2=O)C=C(C)N1CCO — higher, 0.343%
- O=C(O)CNC(=O)/C(=C/c1ccccc1)NC(=O)c1ccc(Br)o1 — higher, 4%
- C=CCNC(=O)c1cnn2c(C(F)F)cc(-c3ccc(OC)cc3)nc12 — lower, -4.31%
- CCN(CC)Cc1c[nH]c2c(C(=O)OC)cccc12 — higher, 1.74%
- CNC(=O)CCc1ccc(S(=O)(=O)NCC(C)C)cc1 — higher, 0.727%
- O=C(Cn1ncn2nc(-c3cccs3)cc2c1=O)NCc1cccc(Cl)c1 — lower, -4.68%
- CC1(C)CC(/N=c2\cc(-c3ccccc3)oc3ccc(Cl)cc23)CC(C)(C)N1 — higher, 2.24%
- CSc1ccccc1-c1cccc(C(=O)N[C@@H](CC(C)C)C(=O)NCC#N)c1 — lower, -6.98%
- CC(=O)N1CCN(C2CC3CCC2C3)CC1 (stereo not drawn) — higher, -1.81%
